# Data as given in the supplement of paper PMC8007513.
# Structures can show the parent of a compound that is named as a salt. ± gives the standard error. In all, about 1,300 compounds went through this assay and about 130 (10%) showed an effect of 50% or more. The entries are a selection whose mix differs from that of the whole data set.
# Tested on: Trichoderma virens ATCC 9645
# Test: growth yield (OD600) with compound + IPBC relative to untreated control; higher = less growth inhibition
# Settings: compound concentration: 100 uM, IPBC concentration: 200 ng/ml
# Method in brief: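 Trichoderma virens ATCC 9645 spores at 15,000 spores ml^−1 in potato dextrose broth were exposed in 96-well plates to library compounds at 100 μM final, with or without a biocide at 200 ng ml^−1. After growth at 30 °C, OD600 was read at 40 h and 72 h. Values are growth relative to the control without either agent, averaged over duplicate screens.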
Compound,growth yield (40 h) [%],growth yield (72 h) [%]
CC[N+](C)(C)Cc1ccccc1Br [Bretylium tosylate] + CCCCNC(=O)OCC#CI [3-iodo-2-propynyl butylcarbamate (IPBC)],101 ± 1.6,100.9 ± 0.63
C[N+](C)(C)CCCCCC[N+](C)(C)C [Hexamethonium dibromide dihydrate] + CCCCNC(=O)OCC#CI [3-iodo-2-propynyl butylcarbamate (IPBC)],89.1 ± 3.6,92.3 ± 3.4
Cc1cc2c(cc1S(N)(=O)=O)S(=O)(=O)CCC2 [Meticrane] + CCCCNC(=O)OCC#CI [3-iodo-2-propynyl butylcarbamate (IPBC)],91.8 ± 6.7,91.7 ± 3.8
NCCNCCNCCNCCN [Tetraethylenepentamine pentahydrochloride] + CCCCNC(=O)OCC#CI [3-iodo-2-propynyl butylcarbamate (IPBC)],86.57 ± 0.79,97 ± 1.6
CC(C)c1ccc2oc3nc(N)c(C(=O)O)cc3c(=O)c2c1 [Amlexanox] + CCCCNC(=O)OCC#CI [3-iodo-2-propynyl butylcarbamate (IPBC)],80.7 ± 3.8,88.4 ± 0.94
CC1(C)S[C@@H]2[C@H](NC(=O)[C@H](NC(=O)N3CCNC3=O)c3ccccc3)C(=O)N2[C@H]1C(=O)O [Azlocillin sodium salt] + CCCCNC(=O)OCC#CI [3-iodo-2-propynyl butylcarbamate (IPBC)],103 ± 13,99.9 ± 5.8
CCCN1C[C@H](CSC)C[C@@H]2c3cccc4[nH]cc(c34)C[C@H]21 [Pergolide mesylate] + CCCCNC(=O)OCC#CI [3-iodo-2-propynyl butylcarbamate (IPBC)],71.95 ± 0.16,89.14 ± 0.63
CSc1ccc2c(c1)C(N1CCN(C)CC1)Cc1ccccc1S2 (stereo not given) [Methiothepin maleate] + CCCCNC(=O)OCC#CI [3-iodo-2-propynyl butylcarbamate (IPBC)],2.06 ± 0.16,1.78 ± 0.1
Cc1c(C)c2c(c(C)c1O)CCC(C)(COc1ccc(CC3SC(=O)NC3=O)cc1)O2 (stereo not given) [Troglitazone] + CCCCNC(=O)OCC#CI [3-iodo-2-propynyl butylcarbamate (IPBC)],100 ± 3.2,94.2 ± 2.5
Cc1cc(C(C)(C)C)c(O)c(C)c1CC1=NCCN1 [Oxymetazoline hydrochloride] + CCCCNC(=O)OCC#CI [3-iodo-2-propynyl butylcarbamate (IPBC)],83.5 ± 2.2,94.7 ± 1.8
COc1ccc(CCN(C)CCCC(C#N)(c2ccc(OC)c(OC)c2)C(C)C)cc1OC (stereo not given) [Verapamil hydrochloride] + CCCCNC(=O)OCC#CI [3-iodo-2-propynyl butylcarbamate (IPBC)],74.2 ± 11,73.6 ± 7.8
Cc1onc(-c2ccccc2)c1-c1ccc(S(N)(=O)=O)cc1 [Valdecoxib] + CCCCNC(=O)OCC#CI [3-iodo-2-propynyl butylcarbamate (IPBC)],84.98 ± 0.16,97.64 ± 0.94
CCCc1cc(=O)[nH]c(=S)[nH]1 [Propylthiouracil] + CCCCNC(=O)OCC#CI [3-iodo-2-propynyl butylcarbamate (IPBC)],90.1 ± 11,93 ± 6.4
C[N+]1(CCCCC[N+]2(C)CCCC2)CCCC1 [Pentolinium bitartrate] + CCCCNC(=O)OCC#CI [3-iodo-2-propynyl butylcarbamate (IPBC)],88 ± 1.6,96.7 ± 0.84
Oc1ncnc2[nH]ncc12 [Allopurinol] + CCCCNC(=O)OCC#CI [3-iodo-2-propynyl butylcarbamate (IPBC)],93.4 ± 4.8,94.28 ± 0.32
CCCCCCC[N+](CC)(CC)CCCCc1ccc(Cl)cc1 [Clofilium tosylate] + CCCCNC(=O)OCC#CI [3-iodo-2-propynyl butylcarbamate (IPBC)],13.5 ± 5.9,74.46 ± 0.42
CNCCCC1c2ccccc2C=Cc2ccccc21 [Protriptyline hydrochloride] + CCCCNC(=O)OCC#CI [3-iodo-2-propynyl butylcarbamate (IPBC)],71.6 ± 3.6,92.3 ± 2.7
C[C@]12CCC(=O)C=C1CC[C@@H]1[C@@H]2[C@@H](O)C[C@@]2(C)[C@H]1CC[C@]2(O)C(=O)CO [Hydrocortisone base] + CCCCNC(=O)OCC#CI [3-iodo-2-propynyl butylcarbamate (IPBC)],80.1 ± 1.6,89.98 ± 0.21
Nc1nc(Cl)nc2c1ncn2[C@H]1C[C@H](O)[C@@H](CO)O1 [Cladribine] + CCCCNC(=O)OCC#CI [3-iodo-2-propynyl butylcarbamate (IPBC)],95 ± 11,96.1 ± 7.5
COc1cccc2c1C(=O)c1c(O)c3c(c(O)c1C2=O)C[C@@](O)(C(=O)CO)C[C@@H]3O[C@H]1C[C@H](N)[C@H](O)[C@H](C)O1 [Doxorubicin hydrochloride] + CCCCNC(=O)OCC#CI [3-iodo-2-propynyl butylcarbamate (IPBC)],8.1 ± 1.1,34.8 ± 20
CC1(C)S[C@@H]2[C@H](NC(=O)[C@H](N)c3ccc(O)cc3)C(=O)N2[C@H]1C(=O)O [Amoxicillin] + CCCCNC(=O)OCC#CI [3-iodo-2-propynyl butylcarbamate (IPBC)],77.4 ± 0.79,88.8 ± 3.5
N=C(N)c1ccc(OCCCCCOc2ccc(C(=N)N)cc2)cc1 [Pentamidine isethionate] + CCCCNC(=O)OCC#CI [3-iodo-2-propynyl butylcarbamate (IPBC)],2.7 ± 0.48,2.1 ± 0.42
Cn1c(NCCN(CCO)CCCc2ccc([N+](=O)[O-])cc2)cc(=O)n(C)c1=O [Nifekalant] + CCCCNC(=O)OCC#CI [3-iodo-2-propynyl butylcarbamate (IPBC)],101 ± 17,97.4 ± 8.9
Fc1ccc(C(c2ccc(F)cc2)N2CCN(C/C=C/c3ccccc3)CC2)cc1 [Flunarizine dihydrochloride] + CCCCNC(=O)OCC#CI [3-iodo-2-propynyl butylcarbamate (IPBC)],3.81 ± 0.32,3.78 ± 0.42
Clc1ccc(CSC(Cn2ccnc2)c2ccc(Cl)cc2Cl)cc1 (stereo not given) [Sulconazole nitrate] + CCCCNC(=O)OCC#CI [3-iodo-2-propynyl butylcarbamate (IPBC)],3.02 ± 0.16,2.41 ± 0.1
